# Assay results published in PubChem BioAssay AID760 (NMMLSC, 2007).
# Among all 190,000 compounds or so, about 360 (0.19%) were called active. The inconclusive results got no clear call from the source; some entries with a clear call stand among them for comparison.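 How the source made its calls: active means GTP binding activity at least 20 points away from 100%, either lowered or raised; inconclusive means signal likely due to the compound's own green fluorescence; inactive means the rest.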
# Target: Ras-related protein Rab-2A (Canis lupus familiaris) (UniProt P61105)
# Test: Rab2 wt fluorescent GTP binding changes, either direction – biochemical, dog, bead-based flow cytometry, multiplex, primary screen (AID 760);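 further: 0% = beads with excess unlabeled GTP and 100% = no-compound control corrected for plate trend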
# Settings: GST-Rab2 wt beads, Bodipy-GTP binding, at 10 µM
row,Structure (SMILES),GTP binding activity
1,CCc1ccc(N(C(=O)c2csnn2)C(C(=O)NC(C)(C)C)c2cccnc2)cc1 (stereo not given),inactive: 97%
2,CCOC(=O)C1CCCN(C(c2ccccn2)c2c(C)[nH]c3ccccc23)C1 (stereo not given),inactive: 100%
3,Cc1ccc(-c2nc(N)n(S(C)(=O)=O)n2)cc1,inconclusive: 92%
4,O=C(O)C1CC(=O)N(c2ccc(F)cc2)C1 (stereo not given),inconclusive: 90%
5,Nc1nc(-c2ccccc2)nn1S(=O)(=O)c1ccccc1,inconclusive: 95%
6,Cc1ccccc1NC(=O)c1sc(NC(=O)COc2ccccc2)c(C#N)c1C,inconclusive: 92%
7,Cc1ccc(Nc2nc(N)nc(CSC(=S)N3CCOCC3)n2)cc1,inconclusive: 107%
8,CN(Cc1ccccc1)C(=O)c1nn2cccnc2c1Cl,inactive: 100%
9,c1ccc(Nc2cc(-c3ccccc3)nc3ncnn23)cc1,inconclusive: 105%
10,Cc1ccc(C)c(C(=O)COC(=O)c2ccccc2N2C(=O)C3C4CCC(C4)C3C2=O)c1 (stereo not given),inconclusive: 103%
11,CCC(=O)Nc1nnc(-c2ccco2)o1,inconclusive: 108%
12,CC1CCN(CC(=O)N2CCCc3c2c(=O)oc2ccc(OCc4ccccc4)cc32)CC1,inconclusive: 88%
13,COc1ccc(C(c2c(C)n(C)n(-c3ccccc3)c2=O)c2c(C)n(C)n(-c3ccccc3)c2=O)cc1O,inconclusive: 94%
14,COc1ccc(NC(=O)CO/N=C2\CCCc3nonc32)cc1,inconclusive: 115%
15,COc1ccccc1/C=C/C(=O)NCc1cccnc1,inactive: 97%
16,CCCC(=O)N1CCN(c2ccc([N+](=O)[O-])c(NC(C)c3ccccc3)c2)CC1 (stereo not given),inconclusive: 104%
17,COc1ccc(NC(=O)COC(=O)c2ccc(S(=O)(=O)N(C)c3ccccc3OC)cc2)c(OC)c1,inactive: 97%
18,C=CC[n+]1ccc(/C=C2\C=Cc3cc(C)ccc3N2CC)c2ccccc21,inactive: 102%
19,O=C1C(=O)c2ccc(-c3ccccc3)cc2-c2ccccc21,inactive: 99%
20,N#CC(c1ccc(Cl)nn1)c1ccc(Cl)cc1Cl (stereo not given),inactive: 108%
21,CCSc1nnc(NC(=O)C2Cc3ccccc3CN2C(=O)c2ccco2)s1 (stereo not given),inconclusive: 93%
22,COc1ccc2[nH]c3nc(SCC(=O)NNC(=O)c4ccc(OC)c(OC)c4)nnc3c2c1,inconclusive: 83%
23,O=C(NN1C(=O)C2C(C1=O)C1C=CC2C12CC2)c1ccncc1 (stereo not given),inconclusive: 91%
24,O=C(NCCCO)Nc1ccc2nc(-c3ccco3)c(-c3ccco3)nc2c1,inconclusive: 83%
25,COc1ccc(N2C(=O)CCC(C(=O)N3CCN(c4ccccn4)CC3)C2c2ccc(F)cc2)cc1 (stereo not given),inconclusive: 97%

row,Structure (SMILES),GTP binding activity
1,CC1(C)CC(=O)/C(=C(/O)CCCN2C(=O)c3ccccc3C2=O)C(=NC(C)(C)C)C1,inactive: 103%
2,CC(C)(C)C(=O)n1nc(-c2ccccc2)oc1=O,inactive: 95%
3,C=CCn1c(N)c(C(=O)Nc2ccc(C)c(C)c2)c2nc3ccccc3nc21,inconclusive: 83%
4,Fc1cccc(NC(=S)NCCCN2CCOCC2)c1,inconclusive: 105%
5,CCNC(=O)NC(=O)COC(=O)CCCc1nc2ccccc2s1,inactive: 95%
6,Cc1ccc(-c2cc(-c3nnc(SCC(=O)NCC(C)C)n3N)c3ccccc3n2)cc1,inconclusive: 103%
7,O=[N+]([O-])c1cc(S(=O)(=O)N2CCCC2)ccc1N/N=C1/CCCc2ccccc21,inconclusive: 105%
8,NC(CSCc1ccccc1Cl)C(=O)O (stereo not given),inconclusive: 87%
9,Cc1nc2c(ccc3nc(NC(=O)c4ccc(S(=O)(=O)N(C)C)cc4)sc32)s1,inconclusive: 67%
10,COc1cc(OC)c(OC)cc1/C=N/NC(=S)NCC1CCCO1 (stereo not given),inactive: 99%
11,COc1cc(C(=O)Nc2ccc3c(c2)OCCO3)ccc1-n1cnnn1,inconclusive: 102%
12,COc1cc(/C=N/NC(=O)c2cc(-c3c(C)nn(-c4ccccc4)c3C)n[nH]2)ccc1O,inconclusive: 90%
13,CCOC(=O)N1CCN(c2c(-c3ccc(C(C)C)cc3)c(=O)c2=O)CC1,inconclusive: 105%
14,Cc1cc(C)c2sc(N(CCN(C)C)C(=O)c3cc(Cl)sc3Cl)nc2c1,inconclusive: 152%
15,Cc1ccc(C(=O)/C=C/c2ccc(-c3ccccc3[N+](=O)[O-])o2)cc1,inconclusive: 90%
16,COc1ccc(C(=O)NCc2nnc(SCC(=O)Nc3ccccc3OC)n2C)cc1,inconclusive: 93%
17,Cc1c(C(=O)NCc2cccnc2)oc2ccc(S(=O)(=O)N3CCC4(CC3)OCCO4)cc12,inconclusive: 99%
18,CC(C)CN(C)C(=O)CC1C(=O)NCCN1C (stereo not given),inconclusive: 96%
19,CC1CCCC(C)N1CCCNC(=O)Cn1cc2c(n1)CCCC2 (stereo not given),inconclusive: 104%
20,C/C(=N\O)c1ccc2c3ccccc3n(C)c2c1,inconclusive: 101%
21,Cc1cc(/C=C(\C#N)C(=O)NCc2ccco2)c(C)n1-c1ccc(C(=O)O)cc1,inactive: 97%
22,CCCCN(CCCC)C(=O)CCS(=O)(=O)c1ccc2c(c1)n(C)c(=O)c(=O)n2C,inconclusive: 105%
23,COc1ccc(CCNC(=O)COC(=O)Cc2cc(OC)c(OC)c(OC)c2)cc1,inactive: 96%
24,S=C(N/N=C/c1ccccc1Cl)Nc1ccccc1,inactive: 98%
25,O=c1[nH]c(SCc2c(Cl)cccc2Cl)nc2ccccc12,inactive: 98%
